Experimental data from the supplement of paper PMC8728848.
The list shows a part of the results.

Experiments:
Experiment in all cases: glycan array binding signal (z-score within array); higher = stronger binding
Details in all cases: glycan notation: IUPAC condensed, linker removed
[1] = target: Fuc(a1-3)[GalNAc(b1-4)]GlcNAc
How it was run: (§1)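 Glycan array binding is given as a within-array Z-score, which can be read as non-binding when negative. The arrays, 3228 of them, came from the Consortium for Functional Glycomics database and were retained only where the protein sequence was available. Z-scores were averaged across arrays of the same protein sequence at different concentrations or buffers and across linkers.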

Fuc(a1-4)GlcNAc = target: Fuc(a1-4)GlcNAc
How it was run: as §1

Fuc(b1-3)GlcNAc = target: Fuc(b1-3)GlcNAc
How it was run: as §1

Gal(a1-2)Gal = target: Gal(a1-2)Gal
How it was run: as §1

Gal(a1-3)Gal = target: Gal(a1-3)Gal
How it was run: as §1

Gal(a1-3)Gal(b1-3)GlcNAc = target: Gal(a1-3)Gal(b1-3)GlcNAc
How it was run: as §1

Gal(a1-3)Gal(b1-4)Glc = target: Gal(a1-3)Gal(b1-4)Glc
How it was run: as §1

Gal(a1-3)Gal(b1-4)GlcNAc = target: Gal(a1-3)Gal(b1-4)GlcNAc
How it was run: as §1

[2] = target: Gal(a1-3)Gal(b1-4)[Fuc(a1-3)]GlcNAc
How it was run: as §1

Gal(a1-3)GalNAc = target: Gal(a1-3)GalNAc
How it was run: as §1

[3] = target: Gal(a1-3)[Gal(a1-4)]Gal(b1-4)GlcNAc
How it was run: as §1

Gal(a1-4)Gal(b1-4)Glc = target: Gal(a1-4)Gal(b1-4)Glc
How it was run: as §1

Gal(a1-4)Gal(b1-4)GlcNAc = target: Gal(a1-4)Gal(b1-4)GlcNAc
How it was run: as §1

Gal(a1-4)GlcNAc = target: Gal(a1-4)GlcNAc
How it was run: as §1

Gal(a1-6)Glc = target: Gal(a1-6)Glc
How it was run: as §1

Gal(b1-2)Gal = target: Gal(b1-2)Gal
How it was run: as §1

Gal(b1-3)Gal = target: Gal(b1-3)Gal
How it was run: as §1

Gal(b1-3)Gal(b1-4)GlcNAc = target: Gal(b1-3)Gal(b1-4)GlcNAc
How it was run: as §1

Gal(b1-3)GalNAc = target: Gal(b1-3)GalNAc
How it was run: as §1

[4] = target: Gal(b1-3)GalNAc(b1-3)Gal(a1-4)Gal(b1-4)Glc
How it was run: as §1

[5] = target: Gal(b1-3)GalNAc(b1-4)Gal(b1-4)Glc
How it was run: as §1

[6] = target: Gal(b1-3)GalNAc(b1-4)[Neu5Ac(a2-3)]Gal(b1-4)Glc
How it was run: as §1

Gal(b1-3)GlcNAc = target: Gal(b1-3)GlcNAc
How it was run: as §1

[7] = target: Gal(b1-3)GlcNAc(b1-2)Man(a1-3)[Gal(b1-3)GlcNAc(b1-2)Man(a1-6)]Man(b1-4)GlcNAc(b1-4)GlcNAc
How it was run: as §1

[8] = target: Gal(b1-3)GlcNAc(b1-3)Gal(b1-3)GlcNAc
How it was run: as §1

[9] = target: Gal(b1-3)GlcNAc(b1-3)Gal(b1-4)Glc
How it was run: as §1

[10] = target: Gal(b1-3)GlcNAc(b1-3)Gal(b1-4)GlcNAc
How it was run: as §1

[11] = target: Gal(b1-3)[Fuc(a1-4)]GlcNAc
How it was run: as §1

[12] = target: Gal(b1-3)[Fuc(a1-4)]GlcNAc(b1-3)Gal(b1-3)[Fuc(a1-4)]GlcNAc
How it was run: as §1

[13] = target: Gal(b1-3)[Fuc(a1-4)]GlcNAc(b1-3)Gal(b1-4)GlcNAc
How it was run: as §1

[14] = target: Gal(b1-3)[Fuc(a1-4)]GlcNAc(b1-3)Gal(b1-4)[Fuc(a1-3)]GlcNAc
How it was run: as §1

[15] = target: Gal(b1-3)[GlcNAc(b1-6)]GalNAc
How it was run: as §1

[16] = target: Gal(b1-3)[Neu5Ac(a2-6)]GalNAc
How it was run: as §1

[17] = target: Gal(b1-3)[Neu5Ac(a2-6)]GlcNAc(b1-6)Gal(b1-4)Glc
How it was run: as §1

[18] = target: Gal(b1-3)[Neu5Ac(b2-6)]GalNAc
How it was run: as §1

[19] = target: Gal(b1-4)GalNAc(a1-3)[Fuc(a1-2)]Gal(b1-4)GlcNAc
How it was run: as §1

[20] = target: Gal(b1-4)GalNAc(b1-3)[Fuc(a1-2)]Gal(b1-4)GlcNAc
How it was run: as §1

Gal(b1-4)Glc = target: Gal(b1-4)Glc
How it was run: as §1

Gal(b1-4)Glc6S = target: Gal(b1-4)Glc6S
How it was run: as §1

Gal(b1-4)GlcNAc = target: Gal(b1-4)GlcNAc
How it was run: as §1

[21] = target: Gal(b1-4)GlcNAc(a1-6)Gal(b1-4)GlcNAc
How it was run: as §1

[22] = target: Gal(b1-4)GlcNAc(b1-2)Man(a1-3)[Gal(b1-4)GlcNAc(b1-2)Man(a1-6)]Man(b1-4)GlcNAc(b1-4)GlcNAc
How it was run: as §1

[23] = target: Gal(b1-4)GlcNAc(b1-3)Gal(b1-3)GlcNAc
How it was run: as §1

[24] = target: Gal(b1-4)GlcNAc(b1-3)Gal(b1-4)Glc
How it was run: as §1

[25] = target: Gal(b1-4)GlcNAc(b1-3)Gal(b1-4)GlcNAc
How it was run: as §1

B1: Surfactant Protein D (rat); Neck + Carbohydrate Recognition Domain (NCRD) (Rattus norvegicus) (protein)
chain: MLLFLLSALVLLTQPLGYLEAEMKTYSHRTMPSACTLVMCSSVESGLPGRDGRDGREGPRGEKGDPGLPGAAGQAGMPGQAGPVGPKGDNGSVGEPGPKGDTGPSGPPGPPGVPGPAGREGALGKQGNIGPQGKPGPKGEAGPKGEVGAPGMQGSAGARGAGPKGERGVPGERGVPGNTGAAGSAGAMGPQGSPGARGPPGLKGDKGIPGDKGAKGESGLPDVASLRQQVEALQGQVQHLQAAFSQYKKVELFPNGQSVGEKIFKTAGFVKPFTEAQLLCTQAGGQLASPRSAAENAALQQLVVAKNEAAFLSMTDSKTEGKFTYPTGESLVYSNWAPGEPNDDGGSEDCVEIFTNGKWNDRACGEKRLVVCEF
glycan array binding signal (z-score) [1]: -0.189
glycan array binding signal (z-score) (Fuc(a1-4)GlcNAc): -0.145
glycan array binding signal (z-score) (Fuc(b1-3)GlcNAc): -0.192
glycan array binding signal (z-score) (Gal(a1-2)Gal): -0.198
glycan array binding signal (z-score) (Gal(a1-3)Gal): -0.174
glycan array binding signal (z-score) (Gal(a1-3)Gal(b1-3)GlcNAc): -0.182
glycan array binding signal (z-score) (Gal(a1-3)Gal(b1-4)Glc): -0.114
glycan array binding signal (z-score) (Gal(a1-3)Gal(b1-4)GlcNAc): -0.18
glycan array binding signal (z-score) [2]: -0.247
glycan array binding signal (z-score) (Gal(a1-3)GalNAc): -0.226
glycan array binding signal (z-score) [3]: -0.254
glycan array binding signal (z-score) (Gal(a1-4)Gal(b1-4)Glc): -0.276
glycan array binding signal (z-score) (Gal(a1-4)Gal(b1-4)GlcNAc): -0.207
glycan array binding signal (z-score) (Gal(a1-4)GlcNAc): -0.242
glycan array binding signal (z-score) (Gal(a1-6)Glc): -0.216
glycan array binding signal (z-score) (Gal(b1-2)Gal): -0.214
glycan array binding signal (z-score) (Gal(b1-3)Gal): -0.117
glycan array binding signal (z-score) (Gal(b1-3)Gal(b1-4)GlcNAc): 0.172
glycan array binding signal (z-score) (Gal(b1-3)GalNAc): -0.181
glycan array binding signal (z-score) [4]: -0.248
glycan array binding signal (z-score) [5]: -0.163
glycan array binding signal (z-score) [6]: -0.068
glycan array binding signal (z-score) (Gal(b1-3)GlcNAc): -0.178
glycan array binding signal (z-score) [7]: -0.211
glycan array binding signal (z-score) [8]: -0.242
glycan array binding signal (z-score) [9]: -0.194
glycan array binding signal (z-score) [10]: -0.156
glycan array binding signal (z-score) [11]: -0.14
glycan array binding signal (z-score) [12]: -0.062
glycan array binding signal (z-score) [13]: -0.11
glycan array binding signal (z-score) [14]: -0.187
glycan array binding signal (z-score) [15]: -0.164
glycan array binding signal (z-score) [16]: -0.242
glycan array binding signal (z-score) [17]: -0.22
glycan array binding signal (z-score) [18]: -0.253
glycan array binding signal (z-score) [19]: -0.22
glycan array binding signal (z-score) [20]: -0.02
glycan array binding signal (z-score) (Gal(b1-4)Glc): -0.236
glycan array binding signal (z-score) (Gal(b1-4)Glc6S): -0.209
glycan array binding signal (z-score) (Gal(b1-4)GlcNAc): 0.481
glycan array binding signal (z-score) [21]: -0.248
glycan array binding signal (z-score) [22]: -0.222
glycan array binding signal (z-score) [23]: -0.189
glycan array binding signal (z-score) [24]: -0.078
glycan array binding signal (z-score) [25]: -0.126
